# Measurements reported in PubChem BioAssay AID1768 (National Center for Advancing Translational Sciences (NCATS), 2009).
# About 620 (0.23%) of roughly 270,000 compounds were called active. This list was built around the results that the source calls inconclusive (neither active nor inactive); the mix of calls is not that of the screen. The call rests on the fitted dose curve; in most records, active means well fitted inhibition curve with a large enough effect in the polarisation, with a control signal flat (not every such curve was filed as active); inconclusive means small, poorly fitted or top-dose-only effect, or effect the other way, or a change in a side signal; inactive means no such curve, though single readings can be large or run the other way; the % refers to the polarisation. Where the call is inconclusive, the potency comes from a doubtful curve fit. “Side channel” marks fits to a control or component signal instead of the main read-out.
# Target: Menin (Homo sapiens) (UniProt O00255)
# Chain of UniProt O00255 (O00255 whole entry, looked up): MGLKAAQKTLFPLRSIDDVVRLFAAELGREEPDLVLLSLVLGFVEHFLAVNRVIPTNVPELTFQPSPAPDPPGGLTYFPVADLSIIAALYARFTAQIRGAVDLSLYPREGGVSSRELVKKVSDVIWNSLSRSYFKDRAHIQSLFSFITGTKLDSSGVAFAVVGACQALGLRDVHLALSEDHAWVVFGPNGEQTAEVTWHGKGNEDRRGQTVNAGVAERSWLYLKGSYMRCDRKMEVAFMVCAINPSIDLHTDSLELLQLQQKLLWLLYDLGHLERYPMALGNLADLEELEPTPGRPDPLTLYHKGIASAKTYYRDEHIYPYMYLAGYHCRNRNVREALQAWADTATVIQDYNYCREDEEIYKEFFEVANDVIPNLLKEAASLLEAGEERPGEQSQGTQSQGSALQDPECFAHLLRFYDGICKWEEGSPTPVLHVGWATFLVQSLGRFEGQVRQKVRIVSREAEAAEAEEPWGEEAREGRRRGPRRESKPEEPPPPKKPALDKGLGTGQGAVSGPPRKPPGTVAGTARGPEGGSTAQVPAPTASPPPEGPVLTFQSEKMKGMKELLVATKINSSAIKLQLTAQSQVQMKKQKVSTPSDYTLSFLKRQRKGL
# Assay: qHTS Assay for Inhibitors Targeting the Menin-MLL Interaction in MLL Related Leukemias: Competition With Texas Red Labeled MLL-derived Mutant Peptide; on FP activity change, negative = inhibition: % of control where 0% means no effect
# Conditions: fluorescence polarization; FP activity change, negative = inhibition: at 61.6 µM (top of the series)
# Potency means the concentration at half of the fitted maximal effect; tags describe the fitted curve by direction and shape or compound fluorescence and quenching.
Compound,Potency,"FP activity change, negative = inhibition"
C=CCn1c(NC(=O)c2ccc(Br)o2)c(S(=O)(=O)c2ccccc2)c2nc3ccccc3nc21,"inconclusive: 10 µM [quencher, side channel, partial curve]",
COc1ccccc1/C=N/OCc1cc(C(C)=O)ccc1OC,"inconclusive: 4.47 µM [quencher, side channel, single point]",
Cc1ccc(-n2ncc3c(=O)n(CC(=O)Nc4cccc(Cl)c4)cnc32)cc1C,"inconclusive: 5.01 µM [inhibitor, full curve, poor fit]",
Cc1ccccc1NS(=O)(=O)c1ccc(OCC(=O)NCc2ccco2)cc1,,inactive: 3.27%
O=C(NCCc1c[nH]c2ccccc12)Nc1cccc2ccccc12,"inconclusive: 17.8 µM [quencher, side channel, single point]",
CNC(=S)NNC(=O)c1cccn(Cc2cccc(Cl)c2)c1=O,"inconclusive: 20 µM [inhibitor, single point]",
O=C(O)c1ccccc1C(=O)Nc1ccc(Nc2ccc([N+](=O)[O-])cc2[N+](=O)[O-])cc1,"inconclusive: 31.6 µM [quencher, side channel, single point]",
Cc1ccc(S(=O)(=O)N(Cc2ccccc2)c2ccccc2C(=O)N2CCCCC2)cc1,"inconclusive: 3.16 µM [inhibitor, partial curve]",
CC(=O)N(CCC1(c2ccc(C)cc2)CCOC(C(C)C)C1)Cc1ccco1 (stereo unspecified),"inconclusive: 20 µM [fluorescent, side channel, partial curve]",
Cc1cc(C)c2sc(N(CCN(C)C)C(=O)c3cc(Cl)sc3Cl)nc2c1,"inconclusive: 28.2 µM [fluorescent, side channel, single point]",
COc1cccc2c1CCCC2CCCN1CCN(C2CCCCC2)CC1 (stereo unspecified),inactive,
CCOc1ccc(-c2nnn(CCC(=O)O)n2)cc1OC,"inconclusive: 7.94 µM [fluorescent, side channel, single point]",
CSc1oc(-c2ccco2)nc1S(=O)(=O)c1ccc(Br)cc1,"inconclusive: 35.5 µM [quencher, side channel, single point]",
O=C(NCC1CCCO1)NC1(C(F)(F)F)Oc2ccccc2O1 (stereo unspecified),,inactive: 10.2%
Cc1ccc2nc(Nc3ccc4[nH]c(=O)[nH]c4c3)c(-n3nc(C)cc3C)nc2c1,"inconclusive: 17.8 µM [quencher, side channel, partial curve]",
O=C(COC(=O)C1c2ccccc2Oc2ccccc21)Nc1ccc2c(c1)OCO2,"inconclusive: 25.1 µM [quencher, side channel, single point]",
Cc1cccc(NC(=S)NC(=O)c2cc(-c3ccccc3)nc3ccccc23)c1,active: 35.5 µM,
O=C(Cn1c(=O)oc2ccccc21)Nc1nnc(N2CCCCCC2)s1,"inconclusive: 39.8 µM [fluorescent, side channel, single point]",

Compound,Potency,"FP activity change, negative = inhibition"
O=C(Oc1ccc2c3c(c(=O)oc2c1)CCC3)c1ccco1,"inconclusive: 22.4 µM [inhibitor, partial curve]",
Cc1ccc(C(=O)/C=C/c2ccc(-c3ccccc3[N+](=O)[O-])o2)cc1,"inconclusive: 28.2 µM [quencher, side channel, single point]",
Cc1cc(S(=O)(=O)N2CCC(NC(=O)C34CC5CC(CC(C5)C3)C4)CC2)ccc1-n1cnnn1,,inactive: -8.23%
COC(=O)N1C(=O)[C@](Cc2ccccc2)(c2ccccc2)N1C(=O)OC,"inconclusive: 8.91 µM [inhibitor, single point]",
O=C(COC(=O)/C=C/c1cccs1)NC(=O)Cc1ccccc1,"inconclusive: 28.2 µM [inhibitor, single point]",
CCCCNC(=O)C1CCC(CNc2nc(=S)[nH]c3ccccc23)CC1 (stereo unspecified),"inconclusive: 44.7 µM [inhibitor, single point]",
Nc1nc(N)c2ncc(C(=O)CCc3ccccc3)nc2n1,"inconclusive: 31.6 µM [quencher, side channel, single point]",
COc1cccc(OCCOc2ccc(/C=C3\C(=N)N4N=C(S(C)(=O)=O)SC4=NC3=O)cc2OC)c1,"inconclusive: 5.62 µM [quencher, side channel, partial curve]",
CCN1C(=O)[C@H]2[C@H]3[C@H](O)[C@H](O)C/C(=N/NC(=O)OCc4ccccc4)[C@H]3CC[C@@H]2C1=O,,inactive: -0.405% [at 11.7 µM]
COc1ccccc1OC(=O)CCc1nc2ccccc2s1,"inconclusive: 11.2 µM [quencher, side channel, partial curve]",
Cc1ccc(-n2cnn(-c3ccc([N+](=O)[O-])cc3[N+](=O)[O-])c2=O)cc1,"inconclusive: 0.708 µM [quencher, side channel, full curve, poor fit]",
O=C(O)c1cnc(-c2ccccc2)nc1Sc1ccccc1Cl,"inconclusive: 11.2 µM [quencher, side channel, partial curve]",
CC(C)CN(CC(C)C)S(=O)(=O)N1CCC(C(=O)NCc2ccc(F)cc2)CC1,"inconclusive: 14.1 µM [fluorescent, side channel, partial curve]",
COC(=O)C(NC(=O)c1ccc(F)cc1)(Nc1ncc(S(=O)(=O)c2ccc([N+](=O)[O-])cc2)s1)C(F)(F)F (stereo unspecified),"inconclusive: 17.8 µM [quencher, side channel, partial curve]",
CCOc1ccc(NC(=O)Nc2cc(OCC(F)(F)F)cc(OCC(F)(F)F)c2)cc1,"inconclusive: 3.16 µM [quencher, side channel, full curve]",
Cc1cc(-c2ccccc2)c2c3c(cn2n1)c(=O)n(C)c(=O)n3C,,inactive: -5.59%
CC(C)(C)CNc1cc(N2CCCC2)ccc1[N+](=O)[O-],"inconclusive: 22.4 µM [fluorescent, side channel, partial curve, poor fit]",
N#CC(C(=O)Nc1ccc(Cl)c(Cl)c1)=C1Nc2ccccc2N1,"inconclusive: 2.51 µM [quencher, side channel, full curve]",
